Measured values taken from a collection of fitness landscapes (doi:10.1016/j.celrep.2020.107928).
In all, about 81,000 sequences were measured (“one-hybrid fitness for binding NBS DNA”: median about -0.1, highest 2% from about 0.36 on). Some of the results follow.

B1: Caulobacter ParB omega fusion; a variant is named by its letters at X, in order, B8GW30 (parent)
chain: MESVVVGEPGMSEGRRGLGRGLSALLGEVDAAPAQAPGEQLGGSREAPIEILQRNPDQPRRTFREEDLEDLSNSIREKGVLQPILVRPSPDTAGEYQIVAGERAWRAAQRAGLKTVPIMVRELDDLAVLEIGIIENVQRADLNVLEEALSYKVLMEKFERTQENIAQTIGKSXSHVANXMRLLXLPDEVQSYLVSGELTAXHARAIAAAADPVALAKQIIEGGLSVRETEALARKAPNLSAGKSKGGRPPRVKDTDTQALESDLSSVLGLDVSIDHRGSTGTLTITYATLEQLDDLCNRLTRGI

Variants of: B1
Assay: one-hybrid fitness for binding NBS DNA (the Noc-binding site; scaled: cognate 1, non-cognate 0); higher = stronger binding
Conditions: with NBS DNA site
Summary of the method: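 Bacterial one-hybrid selection in E. coli USO rpoZ- hisB- pyrF- with a HIS3 reporter carrying the site 19 bp from the promoter, screening Caulobacter ParB libraries with four specificity codons randomised (NNS). Cells grew 48 hours at 37°C on M9-minus-histidine plus 0.1 mM IPTG and 5 mM 3-AT. Plasmids before and after selection were Illumina-sequenced, three replicate libraries pooled, and variants under 10 reads dropped. Fitness is the log change in variant-to-wild-type read ratio, rescaled to cognate 1, non-cognate 0.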

Variant | one-hybrid fitness for binding NBS DNA
KLAM | ≤ 0.2
AGSN | ≤ 0.2
TYMR | ≤ 0.2
NTRG | ≤ 0.2
YEAG | ≤ 0.2
YQVG | ≤ 0.2
AIGR | ≤ 0.2
RWYP | ≤ 0.2
DVTD | ≤ 0.2
EACS | ≤ 0.2
IAGT | ≤ 0.2
RDTP | ≤ 0.2
QPLL | ≤ 0.2
TTFM | ≤ 0.2
GFTT | ≤ 0.2
KRYE | ≤ 0.2
NNLG | ≤ 0.2
TPIA | ≤ 0.2
DSMI | ≤ 0.2
FSTF | ≤ 0.2
PTAC | ≤ 0.2
MHKT | ≤ 0.2
IMQR | ≤ 0.2
GCRV | ≤ 0.2

Variant | one-hybrid fitness for binding NBS DNA
AARG | ≤ 0.2
WRMA | ≤ 0.2
FQGR | ≤ 0.2
VATF | ≤ 0.2
QQGI | ≤ 0.2
HITG | ≤ 0.2
CKQS | ≤ 0.2
PAAH | ≤ 0.2
SGDG | ≤ 0.2
KFVM | ≤ 0.2
FRTF | ≤ 0.2
CTIG | ≤ 0.2
SLRV | ≤ 0.2
RHHR | 0.447
LIPR | ≤ 0.2
YASD | ≤ 0.2
DIMS | ≤ 0.2
CNDS | ≤ 0.2
CRVC | ≤ 0.2
FTSV | ≤ 0.2
VANV | ≤ 0.2
GPLV | ≤ 0.2
VSMT | ≤ 0.2
HIVG | ≤ 0.2

Variant | one-hybrid fitness for binding NBS DNA
HDSC | ≤ 0.2
AIRP | ≤ 0.2
AVDS | ≤ 0.2
GLWQ | ≤ 0.2
ASDS | ≤ 0.2
GQCG | ≤ 0.2
VTAA | ≤ 0.2
FSNM | ≤ 0.2
RGKW | ≤ 0.2
GTTC | ≤ 0.2
MRFG | ≤ 0.2
WRDA | ≤ 0.2
QVGE | ≤ 0.2
PANS | ≤ 0.2
HRFW | ≤ 0.2
PYCM | ≤ 0.2
ITEW | ≤ 0.2
NTWK | ≤ 0.2
VRHE | ≤ 0.2
YSKI | ≤ 0.2
TSLR | ≤ 0.2
QNSC | ≤ 0.2
PQCP | ≤ 0.2
CFYT | ≤ 0.2

Variant | one-hybrid fitness for binding NBS DNA
RFLN | ≤ 0.2
HRTA | ≤ 0.2
YHRS | ≤ 0.2
RPDW | ≤ 0.2
HALM | ≤ 0.2
RTKS | 0.622
CGQC | ≤ 0.2
QYFN | ≤ 0.2
RERL | ≤ 0.2
RKFP | ≤ 0.2
IFNL | ≤ 0.2
AGSC | ≤ 0.2
QMNH | 0.284
HPIM | ≤ 0.2
RKYR | 0.573
PAFV | ≤ 0.2
AVIT | ≤ 0.2
QCNR | 0.751
NPRQ | ≤ 0.2
MRLT | ≤ 0.2
QRDQ | 0.215
DSDG | ≤ 0.2
WSYF | ≤ 0.2
VLGR | ≤ 0.2

Variant | one-hybrid fitness for binding NBS DNA
TNGG | ≤ 0.2
YDIG | ≤ 0.2
MTMG | ≤ 0.2
EHWS | ≤ 0.2
CCNG | ≤ 0.2
QYPS | 0.205
KNRT | ≤ 0.2
RYGW | ≤ 0.2
DWGT | ≤ 0.2
QKDE | ≤ 0.2
TSCS | ≤ 0.2
ETQS | ≤ 0.2
LRQH | ≤ 0.2
HTKW | ≤ 0.2
SVCS | ≤ 0.2
NTNA | ≤ 0.2
VKQH | ≤ 0.2
IYLD | ≤ 0.2
NRQA | ≤ 0.2
FTHP | ≤ 0.2
PFWS | ≤ 0.2
PTSI | ≤ 0.2
GARA | ≤ 0.2
LKNS | ≤ 0.2

Variant | one-hybrid fitness for binding NBS DNA
THYG | ≤ 0.2
GHTL | ≤ 0.2
WLMC | ≤ 0.2
RDFR | ≤ 0.2
DAPG | ≤ 0.2
DYPW | ≤ 0.2
RYCR | 0.377
YTKY | ≤ 0.2
RMVH | ≤ 0.2
PKTK | ≤ 0.2
KYRE | ≤ 0.2
FKMI | ≤ 0.2
RLYP | ≤ 0.2
VIEF | ≤ 0.2
TEQG | ≤ 0.2
LLVF | ≤ 0.2
GLNN | ≤ 0.2
TKDT | ≤ 0.2
MFCV | ≤ 0.2
AKCT | ≤ 0.2
QIYR | 0.348
MILG | ≤ 0.2
TRNA | ≤ 0.2
QSSH | ≤ 0.2

Variant | one-hybrid fitness for binding NBS DNA
MCGC | ≤ 0.2
KYKT | 0.328
IEEG | ≤ 0.2
QPTV | ≤ 0.2
QCWI | ≤ 0.2
RLEG | ≤ 0.2
HETT | ≤ 0.2
LMCS | ≤ 0.2
MGNE | ≤ 0.2
NNDT | ≤ 0.2
TYDG | ≤ 0.2
REPN | ≤ 0.2
AWAN | ≤ 0.2
EFEV | ≤ 0.2
YCPT | ≤ 0.2
QIKI | ≤ 0.2
VTWT | ≤ 0.2
STSQ | ≤ 0.2
NGPW | ≤ 0.2
FGVR | 0.232
PSST | ≤ 0.2
NTLY | ≤ 0.2
SFRP | ≤ 0.2
EGNT | ≤ 0.2

Variant | one-hybrid fitness for binding NBS DNA
KDCT | ≤ 0.2
DPAV | ≤ 0.2
ANVS | ≤ 0.2
RHFN | ≤ 0.2
RWTS | ≤ 0.2
SEMH | ≤ 0.2
AFRF | ≤ 0.2
VVLF | ≤ 0.2
ENPC | ≤ 0.2
QTKV | 0.599
RHQW | ≤ 0.2
RNKP | ≤ 0.2
VMCC | ≤ 0.2
NSTH | ≤ 0.2
LPRD | ≤ 0.2
DFKS | ≤ 0.2
MQDS | ≤ 0.2
PNMI | ≤ 0.2
YVLL | ≤ 0.2
QALT | 0.352
GTKF | ≤ 0.2
LLRY | ≤ 0.2
WDNR | ≤ 0.2
WNAN | ≤ 0.2

Variant | one-hybrid fitness for binding NBS DNA
GVGR | 0.24
TMKS | ≤ 0.2
QSSQ | 0.338
NAIR | ≤ 0.2
PRFD | ≤ 0.2
PTCN | ≤ 0.2
SILV | ≤ 0.2
AKHS | ≤ 0.2
QAPC | ≤ 0.2
QYCK | ≤ 0.2
CSVY | ≤ 0.2
VGLG | ≤ 0.2
ERRI | ≤ 0.2
PCMI | ≤ 0.2
QKWR | 0.462
ENTV | ≤ 0.2
PAGG | ≤ 0.2
DKCT | ≤ 0.2
SGMC | ≤ 0.2
HNHL | ≤ 0.2
HHTR | ≤ 0.2
TDWG | ≤ 0.2
GSSE | ≤ 0.2
PDRT | ≤ 0.2

Variant | one-hybrid fitness for binding NBS DNA
DTLK | ≤ 0.2
PAYY | ≤ 0.2
KLMC | ≤ 0.2
TLCL | ≤ 0.2
RQQW | ≤ 0.2
PACK | ≤ 0.2
LVQC | ≤ 0.2
LMKE | ≤ 0.2
RAIH | ≤ 0.2
PVQP | ≤ 0.2
AMYC | ≤ 0.2
FVHC | ≤ 0.2
MIIT | ≤ 0.2
LAAF | ≤ 0.2
QDVM | ≤ 0.2
DAAF | ≤ 0.2
EDLG | ≤ 0.2
WGRT | ≤ 0.2
DAPL | ≤ 0.2
CVLK | ≤ 0.2
KTVK | ≤ 0.2
LADF | ≤ 0.2
FMRS | ≤ 0.2
SPMT | ≤ 0.2

Variant | one-hybrid fitness for binding NBS DNA
FPLR | ≤ 0.2
ELYS | ≤ 0.2
MPPY | ≤ 0.2
RPNW | ≤ 0.2
VNDR | ≤ 0.2
SFMN | ≤ 0.2
CFHS | ≤ 0.2
TYMT | ≤ 0.2
YYFF | ≤ 0.2
AGNG | ≤ 0.2
RRKE | 0.214
HNDG | ≤ 0.2
RRVT | 0.755
FGGS | ≤ 0.2
WAYG | ≤ 0.2
TGRE | ≤ 0.2
ALPD | ≤ 0.2
TNVF | ≤ 0.2
QPHY | ≤ 0.2
LCYS | ≤ 0.2
QMMC | ≤ 0.2
RRTI | 0.211
HWSG | ≤ 0.2
PWQG | ≤ 0.2

Variant | one-hybrid fitness for binding NBS DNA
GPVD | ≤ 0.2
QYDV | ≤ 0.2
DGYC | ≤ 0.2
SVLC | ≤ 0.2
SSLH | ≤ 0.2
SEIW | ≤ 0.2
MRWT | ≤ 0.2
TKGC | ≤ 0.2
VADQ | ≤ 0.2
RSMP | ≤ 0.2
PHPG | ≤ 0.2
YAAS | ≤ 0.2
ALVC | ≤ 0.2
TSWN | ≤ 0.2
RWTR | ≤ 0.2
SLVC | ≤ 0.2
RCRS | 0.661
GEDM | ≤ 0.2
VALL | ≤ 0.2
ELVT | ≤ 0.2
KGKR | ≤ 0.2
GARR | ≤ 0.2
SRNE | ≤ 0.2
TCSC | ≤ 0.2

Variant | one-hybrid fitness for binding NBS DNA
VCEA | ≤ 0.2
RGMR | ≤ 0.2
CWSY | ≤ 0.2
VDEW | ≤ 0.2
YNYS | ≤ 0.2
YRCV | ≤ 0.2
PLIY | ≤ 0.2
NHES | ≤ 0.2
HGTK | ≤ 0.2
RAPN | ≤ 0.2
MALT | ≤ 0.2
RAPW | ≤ 0.2
MTTY | ≤ 0.2
PREN | ≤ 0.2
NQEL | ≤ 0.2
QTEC | ≤ 0.2
AYVT | ≤ 0.2
TNHS | ≤ 0.2
